The full ranking holds about 33,000 sequences; the median of “E-score (-0.5 to 0.5)” is about -0.01, and the highest 2% start at about 0.26. The list shows a part of the results.
These sequences were tested against Ste12 (UniProt P13574) (assay: PBM E-score (8-mer binding enrichment) (E-score (-0.5 to 0.5)); higher = stronger / more preferred TF binding; most listed sequences are background and not binding sites). Conditions: protein concentration: 200 nM; construct: GST-DNA-binding domain.
Procedure: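 Universal 'all 10-mer' protein binding microarrays (Agilent AMADID 015681) probed with GST-tagged S. cerevisiae TFs (full-length or DBD) made by in vitro transcription/translation (PURExpress), about 100-200 nM. Bound TF was detected with fluorescent anti-GST. Each ungapped 8-mer (which stands for itself and its reverse complement) is scored by the PBM enrichment score (E-score), a modified Wilcoxon-Mann-Whitney statistic from -0.5 to +0.5, computed with the Universal PBM Analysis Suite. Scale: above 0.35 generally sequence-specific binding.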

| Sequence | PBM E-score |
| --- | --- |
| CTCCCCTC | 0.28 |
| AAGTACAA | 0.171 |
| AGAGGACT | -0.341 |
| AGGTTTAC | -0.0517 |
| AGACCAAC | -0.0795 |
| CAAGGATG | -0.228 |
| AAGAGCTA | -0.075 |
| CTTGGCGA | -0.216 |
| ACTCGCCC | -0.0798 |
| GGCTCAAA | -0.119 |
| CCAACCTC | -0.0214 |
| AAAAATAT | 0.339 |
| GCGATCAC | -0.145 |
| AATGCCGG | 0.0373 |
| TAATTAGA | 0.161 |
| AAGAAACC | 0.0773 |
| ACACGTTC | -0.0176 |
| TGACATCA | 0.0837 |
| ACCATCGA | -0.00544 |
| GTCAGCAA | 0.0621 |
| AGCCATTA | -0.0478 |
| ACGGCCGG | -0.0141 |
| TAAGCGAA | 0.0168 |
| AATCTTGC | 0.162 |
| ACATTTGA | 0.221 |

| Sequence | PBM E-score |
| --- | --- |
| TATAACCA | 0.145 |
| CTAAAGTC | -0.151 |
| CCTGGAGC | 0.0851 |
| ACTATTAC | 0.0443 |
| CATAGGCC | -0.036 |
| CTACATAA | -0.0741 |
| GTTGCAAC | 0.186 |
| GAGAGAAA | 0.0704 |
| CCCGCGCG | 0.114 |
| CGGGTGAA | 0.248 |
| GGCCGGAC | -0.0603 |
| GCCAGCTA | -0.192 |
| AGTCCGGG | -0.0471 |
| CGTCGCCA | -0.00322 |
| CTGCCTAC | -0.0361 |
| ATCCAGGG | -0.0741 |
| GGACCCAA | -0.094 |
| GCTATTCA | -0.164 |
| TAACCGTA | 0.0312 |
| CGTTCACC | -0.0406 |
| AAAACGTA | 0.206 |
| CCATTCCC | -0.0529 |
| CGTGAACG | -0.225 |
| CTAGGATA | 0.0183 |
| ACGCTATG | -0.151 |

| Sequence | PBM E-score |
| --- | --- |
| GCTTTAAC | 0.0246 |
| ATAAATTG | 0.321 |
| ATTGATTG | 0.0163 |
| GACGGATC | -0.137 |
| AATACGTG | 0.0328 |
| AGTATCTC | -0.143 |
| AAAACATA | 0.208 |
| GACTTTGC | -0.111 |
| ACCAGACC | 0.031 |
| CCAACGAC | -0.106 |
| ATAACGAC | -0.0302 |
| GGGGAATA | 0.0166 |
| TAAAACAA | 0.261 |
| GATTAATA | 0.246 |
| AAGATATT | 0.132 |
| GTATGTTA | 0.166 |
| CGACTCGC | -0.124 |
| GATTAGTA | 0.115 |
| ACCTCCGG | 0.119 |
| AGAATCCA | -0.00207 |
| GAGAATTA | 0.128 |
| GCGTCAGC | -0.17 |
| GCTTGCCC | -0.0989 |
| CGCTATAC | -0.0194 |
| AGGCTACC | -0.246 |

| Sequence | PBM E-score |
| --- | --- |
| ATGTTTTG | 0.335 |
| CAGTACGG | 0.0442 |
| GATTGGGC | -0.00183 |
| GGAAAACA | 0.177 |
| CTCTATCA | 0.0399 |
| CAAACGTA | -0.052 |
| ACTGACCT | -0.095 |
| GTACCGTA | -0.00396 |
| CGATAAAC | -0.0561 |
| GTCTCAGA | 0.214 |
| CACGTTCA | -0.104 |
| CCCGGTTC | -0.132 |
| AAACCGCA | -0.0779 |
| GACCCTGA | -0.128 |
| CATCTATC | 0.0653 |
| TCGGGACA | 0.00859 |
| AGTAGGTG | 0.182 |
| TGCAGAAA | 0.169 |
| AGGACAAA | 0.195 |
| GCGCGATA | 0.132 |
| CGGAACGA | 0.0799 |
| GTCTAACA | -0.0889 |
| ATTGAGTC | -0.0267 |
| GTCTACGA | -0.261 |
| AGTTGTCC | 0.0255 |

| Sequence | PBM E-score |
| --- | --- |
| AAATTGCA | 0.103 |
| GACCGCTC | -0.255 |
| CTCTCCAG | -0.312 |
| ACGGTGTC | -0.0965 |
| CGATCTGA | 0.012 |
| ACAGCGGC | 0.108 |
| ACATATGT | -0.045 |
| AGCTCCCC | -0.0998 |
| ATCTTCAC | 0.145 |
| ACGCTTCA | -0.0125 |
| GATTCAGA | 0.142 |
| CCCTACAG | -0.279 |
| AAACCCGT | 0.0403 |
| CCGGCTTA | 0.0604 |
| GAGTCTAC | -0.18 |
| CAGGGGGA | -0.17 |
| ATGTTGAC | 0.114 |
| CTATGCTA | -0.0922 |
| ATATCGAT | 0.0627 |
| AAAGCTTC | 0.0401 |
| GCTTCCCA | -0.132 |
| CTATCAAC | 0.0593 |
| TTAATGAA | 0.206 |
| GGACATCC | -0.16 |
| ACAGCAGA | -0.145 |

| Sequence | PBM E-score |
| --- | --- |
| CCAAAGGG | -0.0366 |
| CCTTGCGC | 0.00608 |
| CCTACACG | -0.101 |
| AAGTTAAC | -0.0624 |
| CGTATGTC | -0.159 |
| ACTATCTC | -0.00928 |
| CCAATCCC | 0.104 |
| CAACTCTC | -0.0865 |
| ATAAATTA | 0.255 |
| GTTGACGA | -0.186 |
| CACCATAC | -0.00648 |
| ACCAGTCA | -0.0556 |
| CAAATTTG | 0.103 |
| TACACCCA | 0.0751 |
| GGCGTTTA | 0.168 |
| GTTTACTA | 0.116 |
| CAGTGCAA | -0.0547 |
| GTTTCTAA | 0.249 |
| CGTTGGCC | -0.128 |
| ACCCTGTA | -0.00248 |
| AAGGCTAG | -0.0508 |
| CAGAGGGG | -0.198 |
| CTCTATTA | 0.0578 |
| ACTGTACT | -0.145 |
| ATAATAGG | -0.0375 |

| Sequence | PBM E-score |
| --- | --- |
| ATCATGTC | 0.0261 |
| GTTACACA | 0.25 |
| AGGGTTCA | -0.131 |
| CGTTACAG | 0.146 |
| CCAACAAG | -0.021 |
| AGTGGTCC | -0.272 |
| CCTGGTAC | -0.0643 |
| GTAATGTA | 0.107 |
| CTATTTTA | 0.232 |
| ATCGTTAA | 0.112 |
| ACGAAGAT | 0.0462 |
| ACACTGTC | -0.0374 |
| CGCATAGC | -0.255 |
| AAGCACTC | -0.0994 |
| GCGGAGCA | 0.0183 |
| AATTTCAC | 0.11 |
| ACTCGTCT | 0.0783 |
| ACATCTTA | -0.0589 |
| GAGTGAGC | -0.0395 |
| GGGAACAA | 0.108 |
| CGAGGGAA | 0.101 |
| CTATTGGC | -0.1 |

— the supplement of paper PMC3334620
